Among the data in PMC9569496 are binding values, retold here.

By UniProt entry, the sequences of proteins in these tests, tags left out.
UniProt O60563: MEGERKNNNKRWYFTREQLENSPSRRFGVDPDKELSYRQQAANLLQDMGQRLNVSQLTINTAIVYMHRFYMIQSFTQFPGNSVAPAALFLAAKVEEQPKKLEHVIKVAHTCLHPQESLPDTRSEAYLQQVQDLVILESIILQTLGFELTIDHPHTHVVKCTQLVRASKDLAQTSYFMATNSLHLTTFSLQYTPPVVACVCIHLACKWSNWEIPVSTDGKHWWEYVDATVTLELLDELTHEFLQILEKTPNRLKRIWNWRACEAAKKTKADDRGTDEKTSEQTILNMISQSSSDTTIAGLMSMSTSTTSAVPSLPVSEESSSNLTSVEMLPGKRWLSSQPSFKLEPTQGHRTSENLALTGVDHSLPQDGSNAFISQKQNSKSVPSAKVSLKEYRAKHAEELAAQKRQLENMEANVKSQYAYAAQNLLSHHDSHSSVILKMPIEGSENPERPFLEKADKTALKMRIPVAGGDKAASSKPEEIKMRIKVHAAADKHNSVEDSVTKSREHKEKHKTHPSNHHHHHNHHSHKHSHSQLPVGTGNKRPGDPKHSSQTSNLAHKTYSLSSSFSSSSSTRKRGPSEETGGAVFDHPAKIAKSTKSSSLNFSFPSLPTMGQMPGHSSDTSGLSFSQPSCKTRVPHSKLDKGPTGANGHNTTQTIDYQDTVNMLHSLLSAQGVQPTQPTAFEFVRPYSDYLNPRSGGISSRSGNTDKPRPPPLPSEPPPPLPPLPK
UniProt P51946: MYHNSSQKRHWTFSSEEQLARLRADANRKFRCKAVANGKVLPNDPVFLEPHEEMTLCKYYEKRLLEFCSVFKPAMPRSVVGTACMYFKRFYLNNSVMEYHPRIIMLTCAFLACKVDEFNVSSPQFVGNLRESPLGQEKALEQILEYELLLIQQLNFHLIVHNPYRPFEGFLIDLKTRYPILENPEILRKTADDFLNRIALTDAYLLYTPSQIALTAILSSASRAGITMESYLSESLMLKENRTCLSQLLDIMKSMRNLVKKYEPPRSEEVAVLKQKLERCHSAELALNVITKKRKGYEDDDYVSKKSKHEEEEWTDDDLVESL

Test [1] deals with human cyclin T1 (human (endogenous in HFFs)) (UniProt O60563). The test can be described thus: co-IP; HFFs in T175 flasks infected with HCMV AD169 WT or ORF-UL97 deletion mutants, lysed 4 d.p.i.; cyclins H and T1 immunoprecipitated with specific antibodies, pUL97 detected by Western blot; chicken Fc fragment as negative control.
Test [2] has as its target human cyclin H (human (endogenous in HFFs)) (UniProt P51946). The test is described as above.
The target of test [3] is human cyclin T1 (human (endogenous in HFFs)) (UniProt O60563). The test can be described thus: co-IP; HFFs in T75 flasks infected with HCMV AD169 WT or UL97 point mutants, harvested 4-7 d.p.i.; cyclins T1, H, B1 immunoprecipitated with specific antibodies, pUL97 detected by Western blot; chicken Fc fragment as specificity control.

These are yes or no findings as the source states them, for the method shown. In cells and extracts the contact can be indirect. Some results given as binding are weak or reduced against the parent protein; the word gives no strength.

For the substance “HCMV pUL97 Δ246-265 (AD169-GFP ORF-UL97 deletion mutant) (from UniProt P16788 1-707) (enzyme)”, the binding entry in test [1] and in test [2] was “binds” throughout.
With “HCMV pUL97 Δ231-280 (AD169-GFP ORF-UL97 deletion mutant) (from UniProt P16788 1-707) (enzyme)”, the binding result in test [1] and in test [2] was “no binding” throughout.
On to “HCMV pUL97 Δ241-270 (AD169-GFP ORF-UL97 deletion mutant) (from UniProt P16788 1-707) (enzyme)”, for which the binding result in test [1] and in test [2] was “binds” each time.
In the case of “HCMV pUL97 Δ236-275 (AD169-GFP ORF-UL97 deletion mutant) (from UniProt P16788 1-707) (enzyme)”, the binding result in test [1] and in test [2] was “no binding” in each case.
Consider “HCMV protein kinase pUL97, strain AD169 wild type (from UniProt P16788 1-707) (enzyme)”, for which the binding result in test [3] and in test [1] was “binds” throughout.
As for “HCMV pUL97 Δ251-260 (AD169-GFP ORF-UL97 deletion mutant) (from UniProt P16788 1-707) (enzyme)”, the binding entry in test [1] and in test [2] was “binds” throughout.
